Laboratory results published in the supplement of paper PMC8728848.
The other results are listed elsewhere or left out.

Legend:
Test in all cases: glycan array binding signal (z-score within array); higher = stronger binding
Conditions in all cases: glycan notation: IUPAC condensed, linker removed
[1] = target: Fuc(a1-2)[GalNAc(a1-3)]Gal(b1-3)GlcNAc(b1-3)GalNAc
Summary of the method: (§1)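 From the Consortium for Functional Glycomics database, 3228 arrays were curated, keeping only those whose protein sequence was available. Binding is given as a within-array Z-score averaged across arrays sharing a protein sequence and across linkers. Negative Z-scores can be read as non-binding.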

[2] = target: Fuc(a1-2)[GalNAc(a1-3)]Gal(b1-3)GlcNAc(b1-6)GalNAc
Summary of the method: as §1

[3] = target: Fuc(a1-2)[GalNAc(a1-3)]Gal(b1-4)Glc
Summary of the method: as §1

[4] = target: Fuc(a1-2)[GalNAc(a1-3)]Gal(b1-4)GlcNAc
Summary of the method: as §1

[5] = target: Fuc(a1-2)[GalNAc(a1-3)]Gal(b1-4)GlcNAc(b1-2)Man
Summary of the method: as §1

[6] = target: Fuc(a1-2)[GalNAc(a1-3)]Gal(b1-4)GlcNAc(b1-2)Man(a1-3)[Fuc(a1-2)[GalNAc(a1-3)]Gal(b1-4)GlcNAc(b1-2)Man(a1-6)]Man(b1-4)GlcNAc(b1-4)GlcNAc
Summary of the method: as §1

[7] = target: Fuc(a1-2)[GalNAc(a1-3)]Gal(b1-4)GlcNAc(b1-2)Man(a1-3)[Fuc(a1-2)[GalNAc(a1-3)]Gal(b1-4)GlcNAc(b1-2)Man(a1-6)]Man(b1-4)GlcNAc(b1-4)[Fuc(a1-6)]GlcNAc
Summary of the method: as §1

[8] = target: Fuc(a1-2)[GalNAc(a1-3)]Gal(b1-4)GlcNAc(b1-3)Gal(b1-4)GlcNAc
Summary of the method: as §1

[9] = target: Fuc(a1-2)[GalNAc(a1-3)]Gal(b1-4)GlcNAc(b1-3)Gal(b1-4)GlcNAc(b1-3)Gal(b1-4)GlcNAc
Summary of the method: as §1

[10] = target: Fuc(a1-2)[GalNAc(a1-3)]Gal(b1-4)GlcNAc(b1-3)GalNAc
Summary of the method: as §1

[11] = target: Fuc(a1-2)[GalNAc(a1-3)]Gal(b1-4)GlcNAc(b1-3)[Fuc(a1-2)[GalNAc(a1-3)]Gal(b1-4)GlcNAc(b1-6)]GalNAc
Summary of the method: as §1

[12] = target: Fuc(a1-2)[GalNAc(a1-3)]Gal(b1-4)GlcNAc(b1-6)GalNAc
Summary of the method: as §1

[13] = target: Fuc(a1-2)[GalNAc(a1-3)]Gal(b1-4)[Fuc(a1-3)]GlcNAc
Summary of the method: as §1

[14] = target: Fuc(a1-2)[GalNAc(a1-3)]Gal(b1-4)[Fuc(a1-3)]GlcNAc(b1-3)GalNAc
Summary of the method: as §1

[15] = target: Fuc(a1-2)[GalNAc(a1-4)]Gal(b1-4)GlcNAc
Summary of the method: as §1

[16] = target: Fuc(a1-2)[GalNAc(b1-3)]Gal
Summary of the method: as §1

Fuc(a1-3)GlcNAc = target: Fuc(a1-3)GlcNAc
Summary of the method: as §1

[17] = target: Fuc(a1-3)[Gal(b1-4)]Glc6S
Summary of the method: as §1

[18] = target: Fuc(a1-3)[Gal(b1-4)]GlcNAc
Summary of the method: as §1

[19] = target: Fuc(a1-3)[Gal(b1-4)]GlcNAc(b1-2)Man
Summary of the method: as §1

[20] = target: Fuc(a1-3)[Gal(b1-4)]GlcNAc(b1-2)Man(a1-3)[Fuc(a1-3)[Gal(b1-4)]GlcNAc(b1-2)Man(a1-6)]Man(b1-4)GlcNAc(b1-4)GlcNAc
Summary of the method: as §1

[21] = target: Fuc(a1-3)[Gal(b1-4)]GlcNAc(b1-2)Man(a1-3)[Fuc(a1-3)[Gal(b1-4)]GlcNAc(b1-2)Man(a1-6)]Man(b1-4)GlcNAc(b1-4)[Fuc(a1-6)]GlcNAc
Summary of the method: as §1

[22] = target: Fuc(a1-3)[Gal(b1-4)]GlcNAc(b1-3)Gal(b1-3)[Fuc(a1-4)]GlcNAc
Summary of the method: as §1

[23] = target: Fuc(a1-3)[Gal(b1-4)]GlcNAc(b1-3)Gal(b1-4)[Fuc(a1-3)]GlcNAc
Summary of the method: as §1

[24] = target: Fuc(a1-3)[Gal(b1-4)]GlcNAc(b1-3)Gal(b1-4)[Fuc(a1-3)]GlcNAc(b1-3)Gal(b1-4)[Fuc(a1-3)]GlcNAc
Summary of the method: as §1

[25] = target: Fuc(a1-3)[Gal(b1-4)]GlcNAc(b1-3)GalNAc
Summary of the method: as §1

[26] = target: Fuc(a1-3)[Gal(b1-4)]GlcNAc(b1-6)GalNAc
Summary of the method: as §1

[27] = target: Fuc(a1-3)[Gal(b1-4)]GlcNAc(b1-6)[Gal(b1-3)GlcNAc(b1-3)]Gal(b1-4)Glc
Summary of the method: as §1

[28] = target: Fuc(a1-3)[Gal(b1-4)]GlcNAc6S
Summary of the method: as §1

[29] = target: Fuc(a1-3)[Gal3S(b1-4)]Glc
Summary of the method: as §1

[30] = target: Fuc(a1-3)[Gal3S(b1-4)]GlcNAc
Summary of the method: as §1

[31] = target: Fuc(a1-3)[Gal3S(b1-4)]GlcNAc6S
Summary of the method: as §1

[32] = target: Fuc(a1-3)[GalNAc(b1-4)]GlcNAc
Summary of the method: as §1

[33] = target: Fuc(a1-3)[GalNAc(b1-4)]GlcNAc6S
Summary of the method: as §1

Fuc(a1-4)GlcNAc = target: Fuc(a1-4)GlcNAc
Summary of the method: as §1

Fuc(b1-3)GlcNAc = target: Fuc(b1-3)GlcNAc
Summary of the method: as §1

Gal(a1-2)Gal = target: Gal(a1-2)Gal
Summary of the method: as §1

B1: MpAFP NterminalRI GFP (Marinomonas primoryensis) (protein)
chain: MSDNQFPFATLGNAIGFITKLDGSVTVQSIDGQERVLKLGDPIFFGETVLTGGSGSVTIAFVDGTDVVIGGDSIVEMTDEIYNTGDNEDLVADSSSEIDALQNAILAGDDPTLIQDAPAAGNTLADQQRVDVSIERNDNSAQAGFGVDTQSSLPTYGYDTDNGNGGQATEREYSAPSLSRTLNQSPLLEHHHHHH
glycan array binding signal (z-score) [1]: 1.33
glycan array binding signal (z-score) [2]: -0.494
glycan array binding signal (z-score) [3]: -0.684
glycan array binding signal (z-score) [4]: -0.567
glycan array binding signal (z-score) [5]: -0.305
glycan array binding signal (z-score) [6]: -0.078
glycan array binding signal (z-score) [7]: -0.21
glycan array binding signal (z-score) [8]: 0.153
glycan array binding signal (z-score) [9]: 0.104
glycan array binding signal (z-score) [10]: 0.195
glycan array binding signal (z-score) [11]: -0.542
glycan array binding signal (z-score) [12]: -0.33
glycan array binding signal (z-score) [13]: -0.086
glycan array binding signal (z-score) [14]: -0.054
glycan array binding signal (z-score) [15]: -0.466
glycan array binding signal (z-score) [16]: -0.412
glycan array binding signal (z-score) (Fuc(a1-3)GlcNAc): 0.478
glycan array binding signal (z-score) [17]: 0.539
glycan array binding signal (z-score) [18]: -0.377
glycan array binding signal (z-score) [19]: -0.193
glycan array binding signal (z-score) [20]: -0.554
glycan array binding signal (z-score) [21]: 0.349
glycan array binding signal (z-score) [22]: 0.65
glycan array binding signal (z-score) [23]: 0.109
glycan array binding signal (z-score) [24]: -0.311
glycan array binding signal (z-score) [25]: 0.476
glycan array binding signal (z-score) [26]: 0.037
glycan array binding signal (z-score) [27]: -0.1
glycan array binding signal (z-score) [28]: 2.35
glycan array binding signal (z-score) [29]: -0.447
glycan array binding signal (z-score) [30]: -0.536
glycan array binding signal (z-score) [31]: 0.109
glycan array binding signal (z-score) [32]: -0.088
glycan array binding signal (z-score) [33]: -0.366
glycan array binding signal (z-score) (Fuc(a1-4)GlcNAc): 2.46
glycan array binding signal (z-score) (Fuc(b1-3)GlcNAc): 0.401
glycan array binding signal (z-score) (Gal(a1-2)Gal): 0.182
